# PubChem BioAssay AID504832 (National Center for Advancing Translational Sciences (NCATS), 2011)
# Out of some 310,000 compounds screened, about 18,000 (5.8%) were called active. The inconclusive results got no clear call from the source; some entries with a clear call stand among them for comparison. Calls come from the whole dose curve; as a rule, active = well fitted inhibition curve with a large enough effect; inconclusive = small, poorly fitted or top-dose-only effect, or another doubt; inactive = no such curve, though single readings can be large or run the other way. No potency is given beside an inconclusive call; the fits are too rough.
# Assay: Primary qHTS for delayed death inhibitors of the malarial parasite plastid, 48 hour incubation
# Conditions: P. falciparum luciferase growth in erythrocytes; series mostly up to 28.7 µM
# Method in brief: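 First compound was added to culture medium, then infected red cells at 0.1% parasitemia and 2% hematocrit (final). After incubation at 37 C under 5% CO2, luciferase detection reagent was dispensed and light output recorded.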
# Potency is the fitted concentration of half-maximal effect; tags give direction and shape of the fitted curve.
row,SMILES,Potency
1,O=C(NCC1CCCO1)c1ccc(N2CCCCC2)c([N+](=O)[O-])c1 (configuration not stated),inactive
2,O=C(c1ccco1)N1CCN(C(=O)c2ccc(-c3ccc(Cl)cc3)o2)CC1,"inconclusive [inhibitor, single point]"
3,Nc1ccc(C(=O)N2CCN(S(=O)(=O)c3ccc4c(c3)OCCCO4)CC2)cc1[N+](=O)[O-],"inconclusive [inhibitor, partial curve]"
4,Nc1nc(-c2ccccc2)c(N=Nc2cccc3ccccc23)s1,inactive
5,O=c1c2ccccc2nc(COc2ccccc2)n1/N=C/c1ccc(O)c(O)c1,"inconclusive [inhibitor, single point]"
6,O=C(COC(=O)c1ccco1)c1ccc(S(=O)(=O)N2CCCCC2)cc1,inactive
7,COc1cc(Cl)cc(C2NC(=S)NC(c3ccccc3)=C2C(C)=O)c1OCC(=O)O (configuration not stated),"inconclusive [inhibitor, full curve, poor fit]"
8,Nc1nc(NCC2CCCO2)nc(Nc2ccccc2F)c1[N+](=O)[O-] (configuration not stated),"inconclusive [inhibitor, single point]"
9,O=C(CSC1=NC2(CCCCC2)N=C1c1ccccc1)Nc1ccc2c(c1)OCCO2,active: 10.4 µM
10,Cc1nnc(SCc2ccccc2)n(N)c1=O,inactive
11,O=C(NCCCN1CCCC1=O)c1ccc2c(=O)n(Cc3ccco3)c(=S)[nH]c2c1,"inconclusive [inhibitor, partial curve, poor fit]"
12,CC(=O)N1CCC(C(=O)Nc2ccc(S(=O)(=O)N3CCCCC3)cc2)CC1,inactive
13,O=C(Oc1ccc(OC(=O)N2CCCCC2)cc1)N1CCCCC1,inactive
14,Cc1cc2cc(CN(Cc3nnnn3C3CCCCC3)CC3CCCO3)c(=O)[nH]c2cc1C (configuration not stated),active: 8.28 µM
15,CC(C)COP(=O)(c1ccc(N(C)C)cc1)C(O)c1ccc(Br)cc1 (configuration not stated),"inconclusive [inhibitor, partial curve, poor fit]"
16,CCCNC(=O)COc1coc(CN2CCN(C(=O)c3ccco3)CC2)cc1=O,"inconclusive [inhibitor, partial curve, poor fit]"
17,COc1cccc(CNC(=O)c2nnn(CC(=O)Nc3c(C)cccc3C)c2N)c1,inactive
18,CC(C)NC(=O)c1ccc2c(c1)N(CC(=O)Nc1ccccc1F)C(=O)C(C)(C)O2,inactive
19,COc1cccc(O)c1CN1CCCC(C(=O)c2cccc(C(F)(F)F)c2)C1 (configuration not stated),active: 2.94 µM
20,Cc1c(NS(=O)(=O)c2cc(C(=O)NCC3CCCO3)cc(Cl)c2Cl)c(=O)n(-c2ccccc2)n1C (configuration not stated),inactive
21,CCOC(=O)c1c(NC(=O)COc2ccccc2C#N)sc2c1CC(C)(C)NC2(C)C,active: 11.7 µM
22,O=S(=O)(Nc1ccccc1OC(F)F)c1ccc(S(=O)(=O)N2CCCC2)cc1,inactive
23,O=[N+]([O-])c1ccc(CN2CCN(c3nc4ccccc4s3)CC2)cc1,inactive
24,c1ccc(-c2cc3ccccc3nc2N2CCCC2)cc1,"inconclusive [inhibitor, single point]"

row,SMILES,Potency
1,CN(c1ccccc1)S(=O)(=O)c1cccc(NC(=O)c2cc(=O)c3ccccc3o2)c1,"inconclusive [inhibitor, partial curve]"
2,CC(=O)c1ccc(N2CCN(C(=O)C3CCN(S(=O)(=O)c4ccc5c(c4)CC(C)N5C(C)=O)CC3)CC2)cc1 (configuration not stated),"inconclusive [inhibitor, full curve]"
3,CC(C)c1onc(C(=O)N2CCC3(CC2)OCCO3)c1[N+](=O)[O-],"inconclusive [inhibitor, single point]"
4,CN(C)CC(C(=O)c1ccccc1)c1ccccc1 (configuration not stated),"inconclusive [inhibitor, single point]"
5,O=c1sc2ccccc2n1Cc1ccccc1,inactive
6,COc1ccc2c(c1OC)C(=O)O[C@@H]2[C@H]1c2c(cc3c(c2OC)OCO3)CCN1C,"inconclusive [inhibitor, partial curve, poor fit]"
7,COc1ccc(Cl)cc1NC(=O)COC(=O)Cc1cccs1,inactive
8,COc1ccc(NC(=O)C(NC(C)=O)C(=O)Nc2ccc(F)cc2)cc1 (configuration not stated),inactive
9,CC1(C)Cc2noc(N)c2C(C)(C)N1OC(=O)c1ccco1,"inconclusive [inhibitor, single point]"
10,COCCCNC(=O)c1c[nH]c2ccc(S(=O)(=O)N3CCC(C)CC3)cc2c1=O,"inconclusive [inhibitor, single point]"
11,CS(=O)(=O)N1CCN(c2ccccc2NC(=S)NC(=O)c2ccccc2[N+](=O)[O-])CC1,"inconclusive [inhibitor, partial curve]"
12,S=C(NCCc1ccccc1)Nc1cnc2ccccc2c1,inactive
13,COCC(C)n1c(SCC(=O)N2CCc3ccccc3C2)nc2ccccc2c1=O (configuration not stated),"inconclusive [inhibitor, partial curve, poor fit]"
14,COc1ccc(C)cc1N(CC(=O)Nc1cccnc1)S(=O)(=O)c1ccc(C)cc1,"inconclusive [inhibitor, partial curve]"
15,CCN(CC)c1ccc(/C=C(\C#N)C(=O)NCc2ccco2)cc1,"inconclusive [inhibitor, single point]"
16,CCCC(=O)Nc1cc(Cl)ccc1N1CCN(C(=O)CC)CC1,"inconclusive [inhibitor, partial curve, poor fit]"
17,O=C(Nc1cccc(C(=O)N2CCN(Cc3ccccc3)CC2)c1)c1ccccc1,inactive
18,O=C(NCc1ccccc1)C(c1ccc(F)cc1)N(C(=O)c1csnn1)c1ccccc1 (configuration not stated),inactive
19,Cc1nc(SCC(=O)N2CC(=O)Nc3ccccc32)c2c(C)c(C)sc2n1,"inconclusive [inhibitor, single point]"
20,CCN(CC)c1ccc(NC(=O)c2cccc(C)c2)cc1S(=O)(=O)Nc1ccccc1OC,active: 7.38 µM
21,Cc1ccccc1-n1nc2c(c1NC(=O)c1c(-c3ccccc3Cl)noc1C)CSC2,active: 11.7 µM
22,Nn1c(SCC(=O)Nc2ccc(OC(F)F)cc2)nnc(Cc2ccccc2)c1=O,"inconclusive [inhibitor, partial curve]"
23,N#Cc1nc(-c2cccs2)oc1NCc1ccc(Cl)cc1,"inconclusive [inhibitor, partial curve, poor fit]"
24,COc1cc(CNCCO)cc(Cl)c1OCc1ccc(Cl)cc1Cl,active: 10.4 µM

row,SMILES,Potency
1,CCCCOc1ccc(NC2=NC3(CCCC3)N=C(N)N2)cc1,active: 1.17 µM
2,COC(=O)c1cc(=O)n(Cc2cccs2)c(=Nc2ccccc2)s1,"inconclusive [inhibitor, single point]"
3,CCCC(=O)N1c2ccccc2C(N(C(C)=O)c2ccccc2)CC1C (configuration not stated),"inconclusive [inhibitor, single point]"
4,N#Cc1c(N2CCCCC2)nc(N)c2c(N)nc3c(c12)CC(c1ccccc1)O3 (configuration not stated),active: 5.86 µM
5,CCCn1c(SCC(=O)N2c3ccccc3CC2C)n[nH]c1=O (configuration not stated),inactive
6,O=C(CNC(=O)OCc1ccccc1)NC1CCCCNC1=O (configuration not stated),inactive
7,COc1ccccc1N1CCN(C(=O)c2oc3c(c2C)C(=O)CC(C)(C)C3)CC1,"inconclusive [inhibitor, partial curve]"
8,Cc1cc(C(=O)NCc2ccc3c(c2)OCO3)ccc1[N+](=O)[O-],inactive
9,Cc1cccc(C(O)(C(=O)NNc2ccc3ccccc3n2)c2cccc(C)c2)c1,"inconclusive [inhibitor, single point]"
10,CC1=CC(C)(C)NC(=S)N1c1ccc(C)c(C)c1,"inconclusive [inhibitor, partial curve]"
11,CSCCNC(=O)c1ccc2nc(C3CCCCC3)oc2c1,"inconclusive [inhibitor, single point]"
12,Nc1nc(-c2ccc(S(=O)(=O)N3CCCCC3)cc2)cs1,"inconclusive [inhibitor, single point]"
13,CCOC(=O)COc1cc(-n2c(=S)[nH]c3ccccc3c2=O)c(Cl)cc1Cl,"inconclusive [inhibitor, single point]"
14,Cc1ccc(C(=O)N/C(=C\c2cn(C)c3ccccc23)C(=O)NCCN2CCOCC2)cc1,"inconclusive [inhibitor, partial curve, poor fit]"
15,COc1ccc(CNS(=O)(=O)c2c(C)[nH]c(C)c2C(=O)N2CCCCC2)cc1,inactive
16,N#Cc1c(NC(NC(=O)c2ccco2)C(=O)c2ccccc2)sc2c1CCCC2 (configuration not stated),"inconclusive [inhibitor, single point]"
17,CC1(C(=O)N/N=C/c2ccc([N+](=O)[O-])o2)CC1(Br)Br (configuration not stated),"inconclusive [inhibitor, partial curve, poor fit]"
18,Cc1noc(C)c1CN(C(=S)NC1CC2CCC1C2)c1ccccc1 (configuration not stated),active: 11.7 µM
19,N[C@H](CSCc1ccccc1)C(=O)Nc1ccc([N+](=O)[O-])cc1,"inconclusive [inhibitor, single point]"
20,Cc1nn(Cc2ccc(F)cc2)c2sc(C(=O)Nc3ccc(N4CCOCC4)cc3N3CCOCC3)cc12,active: 11.7 µM
21,CSc1nc(-c2ccccc2F)c(C#N)c(=O)n1C,inactive
22,CS(=O)(=O)C1=NSC2=NC(=O)/C(=C\c3cccn3-c3ccc(Cl)cc3)C(=N)N21,inactive
23,COCCNC(=O)c1ccc(-c2csc(C)n2)cc1,inactive
24,O=C(Nc1ccc(Cl)cn1)c1cccc(S(=O)(=O)N2CCCCC2)c1,"inconclusive [inhibitor, single point]"
